Common to all, as to assay: co-IP; N. benthamiana leaves transiently co-expressing the transgenes (35S promoter), 48 h postinfiltration, no crosslinking; YFP fusion held on GFP-Trap agarose; where noted leaves given 10 min high blue light (~50 umol m^-2 s^-1) or darkness before extraction
In assay [1] the target is T1, N-terminally YFP-tagged KAC1 (YFP:KAC1) (Arabidopsis thaliana) (UniProt Q9LX99).
T1 sequence: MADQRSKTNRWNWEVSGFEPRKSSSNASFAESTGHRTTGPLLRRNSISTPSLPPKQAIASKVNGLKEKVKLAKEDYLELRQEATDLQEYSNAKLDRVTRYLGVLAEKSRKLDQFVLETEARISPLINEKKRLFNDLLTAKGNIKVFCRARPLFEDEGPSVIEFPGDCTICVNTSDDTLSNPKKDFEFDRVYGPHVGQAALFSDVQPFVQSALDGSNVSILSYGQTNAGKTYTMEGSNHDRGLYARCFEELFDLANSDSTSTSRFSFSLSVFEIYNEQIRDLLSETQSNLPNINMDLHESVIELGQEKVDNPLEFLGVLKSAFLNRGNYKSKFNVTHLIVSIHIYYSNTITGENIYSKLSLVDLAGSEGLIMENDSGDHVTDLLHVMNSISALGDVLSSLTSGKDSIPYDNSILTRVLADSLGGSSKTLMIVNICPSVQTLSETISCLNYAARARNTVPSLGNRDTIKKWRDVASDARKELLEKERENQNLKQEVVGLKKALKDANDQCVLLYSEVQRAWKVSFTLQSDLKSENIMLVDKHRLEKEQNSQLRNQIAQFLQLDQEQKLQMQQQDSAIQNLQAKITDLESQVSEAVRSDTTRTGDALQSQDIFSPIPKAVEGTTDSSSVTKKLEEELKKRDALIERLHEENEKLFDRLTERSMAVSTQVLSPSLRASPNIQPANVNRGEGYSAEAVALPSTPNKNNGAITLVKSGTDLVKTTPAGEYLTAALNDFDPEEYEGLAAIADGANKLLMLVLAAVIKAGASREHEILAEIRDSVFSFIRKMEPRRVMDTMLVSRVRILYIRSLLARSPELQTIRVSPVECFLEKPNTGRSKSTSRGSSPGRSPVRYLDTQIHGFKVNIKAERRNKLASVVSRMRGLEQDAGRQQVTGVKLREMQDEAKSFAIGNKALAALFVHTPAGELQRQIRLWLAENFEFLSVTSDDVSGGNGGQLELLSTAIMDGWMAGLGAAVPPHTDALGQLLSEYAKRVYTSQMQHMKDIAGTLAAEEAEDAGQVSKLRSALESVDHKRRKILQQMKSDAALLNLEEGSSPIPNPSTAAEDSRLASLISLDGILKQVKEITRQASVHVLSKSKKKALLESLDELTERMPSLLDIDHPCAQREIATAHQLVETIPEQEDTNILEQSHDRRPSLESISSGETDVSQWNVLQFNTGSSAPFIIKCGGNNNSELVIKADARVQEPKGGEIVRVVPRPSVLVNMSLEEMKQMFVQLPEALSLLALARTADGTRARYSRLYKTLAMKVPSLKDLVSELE

By UniProt entry, the sequences of proteins in these tests, tags left out.
UniProt P93025: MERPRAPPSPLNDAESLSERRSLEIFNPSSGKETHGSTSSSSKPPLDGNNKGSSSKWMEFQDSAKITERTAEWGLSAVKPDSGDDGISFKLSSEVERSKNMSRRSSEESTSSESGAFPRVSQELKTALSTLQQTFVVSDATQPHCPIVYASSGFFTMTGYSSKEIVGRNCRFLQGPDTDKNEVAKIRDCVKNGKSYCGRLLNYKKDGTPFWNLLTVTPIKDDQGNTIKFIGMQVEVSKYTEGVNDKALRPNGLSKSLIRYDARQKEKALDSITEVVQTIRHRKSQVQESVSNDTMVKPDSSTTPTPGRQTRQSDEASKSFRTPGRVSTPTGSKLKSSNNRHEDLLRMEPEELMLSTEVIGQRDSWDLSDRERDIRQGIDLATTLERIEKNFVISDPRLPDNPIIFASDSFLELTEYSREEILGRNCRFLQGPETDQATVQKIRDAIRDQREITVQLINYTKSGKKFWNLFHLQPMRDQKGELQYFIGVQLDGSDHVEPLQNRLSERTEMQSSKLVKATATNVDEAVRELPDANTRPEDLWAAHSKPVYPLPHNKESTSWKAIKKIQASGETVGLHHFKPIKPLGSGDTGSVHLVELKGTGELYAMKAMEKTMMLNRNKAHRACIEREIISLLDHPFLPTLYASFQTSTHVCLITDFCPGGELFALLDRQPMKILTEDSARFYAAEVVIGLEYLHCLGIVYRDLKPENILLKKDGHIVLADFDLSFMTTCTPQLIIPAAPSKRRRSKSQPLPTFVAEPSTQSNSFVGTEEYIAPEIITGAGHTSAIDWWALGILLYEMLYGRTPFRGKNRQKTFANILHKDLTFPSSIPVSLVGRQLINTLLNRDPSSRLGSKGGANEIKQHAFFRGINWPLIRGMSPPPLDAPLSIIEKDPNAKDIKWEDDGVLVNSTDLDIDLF
UniProt P48348: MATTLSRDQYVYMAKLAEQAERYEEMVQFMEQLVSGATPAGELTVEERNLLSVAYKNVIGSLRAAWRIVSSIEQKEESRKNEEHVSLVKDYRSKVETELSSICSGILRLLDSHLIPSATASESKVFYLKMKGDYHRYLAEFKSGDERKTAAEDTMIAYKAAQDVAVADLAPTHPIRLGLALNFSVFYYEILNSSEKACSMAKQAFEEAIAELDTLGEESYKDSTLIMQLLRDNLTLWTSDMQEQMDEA
UniProt Q01525: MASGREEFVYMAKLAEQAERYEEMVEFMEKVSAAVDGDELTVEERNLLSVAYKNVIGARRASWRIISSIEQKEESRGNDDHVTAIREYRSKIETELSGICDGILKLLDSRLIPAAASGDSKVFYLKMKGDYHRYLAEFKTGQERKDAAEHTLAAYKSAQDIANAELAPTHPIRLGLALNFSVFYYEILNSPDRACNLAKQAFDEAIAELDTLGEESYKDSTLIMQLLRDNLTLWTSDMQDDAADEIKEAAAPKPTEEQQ
UniProt P42643: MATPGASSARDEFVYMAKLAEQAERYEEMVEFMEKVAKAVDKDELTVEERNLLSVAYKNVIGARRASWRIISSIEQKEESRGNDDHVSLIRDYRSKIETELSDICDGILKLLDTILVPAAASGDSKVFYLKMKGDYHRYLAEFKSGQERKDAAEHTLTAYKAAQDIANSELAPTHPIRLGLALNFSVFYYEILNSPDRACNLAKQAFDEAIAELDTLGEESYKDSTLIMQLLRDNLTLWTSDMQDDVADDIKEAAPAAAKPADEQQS
UniProt P48349: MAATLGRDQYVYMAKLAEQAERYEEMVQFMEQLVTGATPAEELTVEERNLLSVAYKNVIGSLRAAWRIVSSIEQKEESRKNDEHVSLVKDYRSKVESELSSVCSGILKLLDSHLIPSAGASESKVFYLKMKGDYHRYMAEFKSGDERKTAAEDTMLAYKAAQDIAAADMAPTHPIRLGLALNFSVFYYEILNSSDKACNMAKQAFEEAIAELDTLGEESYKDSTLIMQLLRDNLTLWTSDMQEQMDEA

Assay [2] deals with Phototropin2 (Phot2), transiently expressed in N. benthamiana leaves (Arabidopsis thaliana) (UniProt P93025).
For assay [3], the target named is T2, PMI1 fused with YFP (PMI1:YFP) (Arabidopsis thaliana) (UniProt Q9C8E6).
T2 sequence: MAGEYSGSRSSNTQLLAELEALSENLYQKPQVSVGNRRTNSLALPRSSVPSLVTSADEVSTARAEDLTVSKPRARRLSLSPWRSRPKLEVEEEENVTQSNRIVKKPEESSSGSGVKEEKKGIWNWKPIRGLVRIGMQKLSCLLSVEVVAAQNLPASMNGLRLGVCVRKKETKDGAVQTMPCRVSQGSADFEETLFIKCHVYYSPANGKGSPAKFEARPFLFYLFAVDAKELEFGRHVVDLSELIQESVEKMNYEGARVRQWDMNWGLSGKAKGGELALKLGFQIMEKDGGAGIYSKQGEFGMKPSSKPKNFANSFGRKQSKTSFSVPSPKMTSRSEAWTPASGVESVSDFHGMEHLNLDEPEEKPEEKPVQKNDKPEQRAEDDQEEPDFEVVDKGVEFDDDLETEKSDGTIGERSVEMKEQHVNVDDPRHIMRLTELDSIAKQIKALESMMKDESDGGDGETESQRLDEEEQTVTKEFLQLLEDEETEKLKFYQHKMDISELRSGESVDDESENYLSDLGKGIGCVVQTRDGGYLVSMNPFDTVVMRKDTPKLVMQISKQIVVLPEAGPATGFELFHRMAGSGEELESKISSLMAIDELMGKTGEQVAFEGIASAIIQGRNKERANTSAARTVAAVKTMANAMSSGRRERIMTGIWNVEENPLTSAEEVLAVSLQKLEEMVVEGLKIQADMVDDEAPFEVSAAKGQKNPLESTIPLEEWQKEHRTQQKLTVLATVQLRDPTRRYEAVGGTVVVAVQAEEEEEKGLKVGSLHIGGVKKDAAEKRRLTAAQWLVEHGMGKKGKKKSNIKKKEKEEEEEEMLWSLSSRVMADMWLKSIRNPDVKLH

Results on four substances are retold here after publication PMC9237684.

These are yes or no findings as the source states them, for the method shown. Binding seen in cells or lysates may run through a third protein. Some entries that bind do so weakly or less than the wild type. For some assays here: Tags and fused reporters may be left off the sequences shown.

“14-3-3 KAPPA with HA tag (KAPPA:HA) (from UniProt P48348 1-248)”: the binding result is reported as “binds” in assay [1], “no binding” in assay [2] and “binds” in assay [3].
Turning to “14-3-3 OMEGA with HA tag (OMEGA:HA) (from UniProt Q01525 1-259)”, the binding result in assay [1] was “binds”; in assay [2], “no binding”; in assay [3], “binds”.
On to “14-3-3 CHI, expressed in N. benthamiana leaves (tag not stated) (from UniProt P42643 1-267)”, for which the binding result in assay [2] is listed as “no binding”.
Same read-out and setting: the result for “14-3-3 LAMBDA, expressed in N. benthamiana leaves (tag not stated) (from UniProt P48349 1-248)” reads “no binding”.
